From the supplement of paper PMC3334620
Over roughly 33,000 sequences, “E-score (-0.5 to 0.5)” has its median near -0.04; the highest 2% begin near 0.36. This is one part of the list.

These sequences were tested against T1, Hmlalpha2 (UniProt P0CY09) (assay: PBM E-score (8-mer binding enrichment) (E-score (-0.5 to 0.5)); higher = stronger / more preferred TF binding; most listed sequences are background and not binding sites). Conditions: protein concentration: 200 nM; construct: GST-full length.
T1 sequence: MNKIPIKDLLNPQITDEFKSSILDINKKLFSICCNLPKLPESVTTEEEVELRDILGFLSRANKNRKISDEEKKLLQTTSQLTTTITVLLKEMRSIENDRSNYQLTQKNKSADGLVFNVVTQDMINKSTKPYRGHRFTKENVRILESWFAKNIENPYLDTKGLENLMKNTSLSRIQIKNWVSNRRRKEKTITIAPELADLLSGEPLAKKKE
Summary of the method: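 The E-score, a modified Wilcoxon-Mann-Whitney statistic, was computed by the Universal PBM Analysis Suite for every ungapped eight-base word pooled with its reverse complement. Scans behind it were normalised with masliner after bound GST-tagged yeast transcription factors were detected with fluorescent anti-GST. The proteins, at about 100-200 nM, had been applied to universal all-10-mer Agilent arrays made double-stranded by primer extension.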

Sequence | PBM E-score
AAAATAGA | 0.0729
CCCGTGCC | -0.337
GATGCTAC | 0.069
ACGAGAGA | -0.0602
AGCTACAA | -0.0135
ATGATGGC | -0.222
AAAATCTA | 0.208
CTATGAGA | -0.259
CAGGTTAA | 0.203
AAACTCTA | 0.0851
CAGTTATC | -0.131
AGTGCTGC | -0.252
AACCCATA | 0.109
AGTGACTG | -0.152
AGCTCAAC | 0.0679
GCTCCACC | -0.253
ACCCCTCG | -0.271
ATCGCCGG | -0.14
ACCGTCGG | -0.207
GTTTTTAA | 0.279
ACATGATG | 0.348
ATAGAATC | -0.1
AATTACGG | -0.0144
AATGAAAT | 0.177
AACTCGGT | -0.0432

Sequence | PBM E-score
TCTCTGAA | -0.162
AACATTGT | 0.284
AGTATCCC | -0.179
AAAAAGAA | 0.115
GCTCTACC | -0.181
AGCCCGGC | -0.202
CCCACAGC | -0.0147
AAAGTACT | 0.0164
CCAGACCG | -0.219
CATCCACC | -0.16
GTAAGAAA | 0.0998
ATTAGTGA | -0.002
GTGAGTCA | -0.0354
CATAACCA | -0.00499
AGCCTCGC | -0.109
AGCATTGG | 0.0606
AACGAGTC | 0.00953
GTACAAAC | 0.258
GCGTGGAA | -0.182
GGCATGTA | 0.439
TATGGTAA | 0.0569
ATAATTAG | 0.078
AAAGCGTC | -0.0444
TCCCATCA | -0.215
ACCATGTG | 0.188

Sequence | PBM E-score
ATCATGCC | -0.0296
TGGAAGAA | -0.0248
ACTCTACC | -0.0519
GGTGGTAA | 0.11
AACCCAGG | -0.00398
AGTCGGTA | -0.0931
ATTGCGAA | 0.0851
GTCAAGTA | 0.201
AGTAAAAG | 0.208
GTCCACTA | -0.0249
CACTGCGC | -0.2
AAAGAGTG | 0.0105
CGAAAGTC | -0.0706
CGCTGTCC | 0.0698
CAAAAGTG | 0.0155
GAGACTCC | -0.184
AGGAGAGA | -0.063
AGGGGAGA | -0.237
AGTGTACA | 0.301
TTTTAAAA | 0.227
CTTCCAAC | -0.0326
CGCAGTCC | -0.00615
GAGGCTTA | -0.0911
CGGTAGGC | -0.109
GTGGCTTA | -0.0398

Sequence | PBM E-score
CGTAGCAA | 0.137
GAGCTTTA | 0.0849
GCGGGACC | -0.204
AAGCTGCT | -0.0459
TAGACGGA | -0.0604
ACACGTAG | 0.351
ACCTCACT | -0.0314
CCTCGAGA | 0.00388
ACACATAA | 0.364
TCTCGGCA | -0.135
CCCCTTAA | -0.18
AACGGGAG | -0.123
TCACGCGA | 0.118
GCACGCAC | -0.213
GTCCCGGA | -0.206
ACCGAATA | 0.143
CAAGACGG | -0.201
CAGATGGG | -0.169
ACCATCGT | -0.151
GAGTTTTA | 0.125
AGCACAAA | 0.105
CACCATGC | -0.0851
CCCGACGA | -0.065
ATTGATAA | 0.0794
CCTAGTAG | -0.0432

Sequence | PBM E-score
CCTGGTAA | -0.0235
CGGCGTTC | -0.129
GCGGAATA | 0.0517
GCATGAAC | 0.104
CGCGTCTC | 0.0746
TCAGGACA | -0.0605
CATCGCAC | -0.117
GACCGTTA | -0.142
GCGGTAGA | -0.216
CGCATACA | 0.227
TATACAGA | 0.251
ACTCTTAT | 0.0802
GGCGTTCA | -0.0183
ACCTAAAA | -0.0182
ACCCACTG | -0.203
CAGTACCC | -0.101
TATTACCA | 0.206
CCAGTAGG | -0.239
ACGAATAG | -0.18
CTCCTAGC | -0.157
ACTCTCCG | -0.0228
ACACTACA | 0.397
CGTGACGA | -0.0347
TCCCGCAA | -0.0413
GATCACGC | 0.125

Sequence | PBM E-score
GGAGTTGA | 0.00752
ACGGAGGC | -0.273
CGAGTCGC | -0.28
AAGCGCAT | -0.04
GACAACAC | 0.319
ACCAATTA | 0.195
TAGTACGA | 0.0711
TATAGTAA | 0.234
CCCCCCTC | -0.375
ACCACCAA | -0.235
ATGTGAAA | 0.222
GCTGTAGA | 0.193
CTCAGTGA | -0.203
AAGTGCTC | -0.268
ACAATTCT | 0.156
ATGATCAG | -0.0692
TCGCATCA | -0.126
GAGTATCA | 0.00173
CAGTAGTA | 0.135
CATAGACC | -0.163
GAGTATCC | -0.135
ATGCTGTA | 0.136
GGGTTCAC | -0.153
GGGATCTA | -0.168
CTAACAGC | -0.129

Sequence | PBM E-score
AACGCAGT | 0.111
TCGTCCCA | -0.0293
ATAGCCGA | -0.0737
ATTTGTAA | 0.344
AATATATA | 0.258
CAGCCCTA | 0.0886
AGGACCCG | -0.23
ATTTCGTG | 0.0895
GAACCTTA | -0.137
AGTAATGG | 0.124
ATGGTTGG | -0.184
AATCGGAA | -0.00222
AGCTTCCT | 0.0723
AAAACCGT | 0.226
GGGGAGGA | -0.38
CTTCTACA | 0.32
CGCCAACA | 0.0904
CTTGTAAA | 0.452
GCAGGGAA | -0.18
AGTTCGCG | -0.147
ATAAAGCG | 0.0354
CAGGGTGC | -0.308
AAGCAACA | 0.151
GATGAGAA | 0.0348
CCGTCCGC | -0.332

Sequence | PBM E-score
AGAGGTTG | -0.0711
GTACCATA | -0.00836
AAATAGAC | -0.0652
CGTACGTC | 0.197
GTCCAAAC | -0.108
AACAGAGG | 0.0102
ACTCACAC | 0.00918
GGCTCCAC | -0.259
GCGAGGAA | -0.0112
GACGTCCA | -0.0712
CCAGGACA | -0.0628
TATGTTGA | 0.364
ACGCAATA | 0.325
GATGGTCC | -0.0351
GCTCGAAC | 0.0912
ACACTTAC | 0.209
AGTCAAGG | -0.124
CGGTTAGA | -0.23
CCCCGAGG | -0.234
CATGAAGC | 0.102
AACGCCCG | -0.095
ACATTGCA | 0.239
ACGTTCTG | -0.00331
CTAGAACC | -0.163
ATCCGCAT | 0.0455

Sequence | PBM E-score
GGGCCGAA | -0.287
CGATCTCA | -0.0804
AAACTTGT | 0.213
AAACACTA | 0.257
GTATACCA | 0.0822
AAAAGGGA | -0.183
CTCCCCGC | -0.0707
AGGAAGTA | -0.011
AAAAAGAT | -0.00444
CCTAACGA | -0.0891
AACATGCG | 0.399
ACTAGAAG | -0.0727
GTTCCGTA | 0.164
AGGATGCG | -0.148
GACGCGTC | 0.0547
CGGCTAAA | -0.0334
AGAATTCG | -0.042
TGTTTGAA | 0.22
GGGGGTCA | -0.353
ACGTGGTG | 0.0942
CGCGTTGC | 0.273
CTTGACCA | -0.0171
AGTTTTAC | 0.294
ATGGCACC | -0.28
CGGGTGCC | -0.166

Sequence | PBM E-score
CAGTTGAA | -0.0594
ACGCATCA | 0.19
ACTGTAAC | 0.102
CGGTCAAG | -0.208
AAGTAGCG | -0.0783
CAAGTTCC | -0.0347
AGATAGAG | -0.0305
GAACCAGA | -0.0935
GGCCCCGA | -0.109
GCATCGGC | -0.132
GGCGGAGA | -0.0452
GTCTAAGA | 0.0813
GTAGGTTA | 0.107
GCGTACCC | -0.151
ACCTTTAT | -0.105
GTAAGAGA | 0.153
CTGGGTTC | -0.0163
AGGAGACA | 0.00781
CAATTCGC | 0.103
CACTGCGA | -0.0249
ACGTGCTA | 0.212
CTTCTCAA | -0.134
GTAATGAC | 0.276
CTCTATTC | -0.172
GTTTTACA | 0.408

Sequence | PBM E-score
ATCCACGC | -0.201
CGATATAC | 0.0862
GGTCCCTA | -0.0695
ACCGGAGA | -0.308
CTGTCGTA | 0.0261
GCCCTCAA | -0.242
CGTAGAGA | 0.0605
CTCGCCGC | -0.122
AACCCGAG | -0.0715
CTCTAGCC | -0.0817
ATCCAGGC | -0.297
GGAAGCCC | -0.268
CCGAAGAC | -0.199
CGCGTTGA | 0.301
CTCCTGGC | -0.199
AACTCTCA | -0.0285
AGTAAGAT | 0.0594
GACTGGAA | -0.203
CCCACAAA | 0.0047
CGGAGAAG | -0.358
CTTACGGA | -0.216
AAATAGTG | 0.21
CATCAAAC | -0.0104
GGGTTGGA | -0.133
CAGTGGGA | -0.193

Sequence | PBM E-score
CCAGTCGA | -0.139
AATCGGAT | 0.0614
GGGAACGA | -0.151
AGTCTTCG | -0.0117
GATCTACA | 0.345
ACAGACCT | 0.00306
AGTACCCG | 0.0456
ACGGTTGA | -0.0172
CAAAGGTC | -0.233
AAAATTCA | 0.2
AGGGCAGA | -0.21
ACCCTGGA | -0.235
TCTACCAA | 0.066
ATCGAGCG | -0.0213
CCCTGTCA | -0.0577
CGAACCAG | 0.0425
GGTTGTTA | 0.294
AATGCAAT | -0.07
TAAGTATA | 0.239
ATCACCGA | -0.0274
TCCCCAGA | -0.194
ATAGACCA | -0.255
GCGAGTAA | 0.16
CATTGCGC | -0.0675
GGCACCAC | -0.215

Sequence | PBM E-score
AATTCCCT | -0.108
CAAGCTCC | -0.197
AACTGTGC | 0.0396
GTGCACTA | -0.0564
CACTAGTC | -0.172
TCAGAACA | 0.196
GCTGTCAA | 0.0865
AAGGAAGG | -0.0177
CCCACGGG | -0.144
CGGTAAGA | -0.119
AAGTGAGT | 0.0309
ACCAGTGC | -0.164
AGTAATAC | 0.211
ACCTCTAG | -0.0295
AAAGTAAC | 0.137
GGCGCAAC | -0.0658
AGTGAATA | 0.183
ACGCCCAA | 0.0228
CGGCTGGA | -0.33
AACACACC | 0.327
ATATTGCC | -0.0977
ACAAAGTA | 0.268
AGTACATC | 0.233
CGACAGTA | -0.128
AGGCGCCC | -0.316

Sequence | PBM E-score
TGCCCCCA | -0.311
CCAGTTGC | -0.368
ATCATTAA | 0.23
ACAGCGAA | -0.00161
TGAGAGCA | -0.212
CCCCTCCG | -0.0756
AAGTGTTG | 0.238
AACCAATA | 0.132
TACAGTCA | 0.0807
AACGAACC | 0.036
CGCTCTGA | -0.135
ACGAAGAC | -0.216
CCCCGGTC | -0.364
ACCGTTCG | -0.0451
CGTGGCTA | -0.182
CATCAGCA | -0.151
GATCCATC | -0.112
AATCAATA | 0.126
CATTGGGA | -0.134
